# Assay results published in the supplement of paper PMC8728848.
# The list shows a part of the results.
# B1: PX9937A-bvu-521-23-521 (Bacteroides vulgatus) (protein)
# chain: LDLAPEDYYGAGNFWKEASQPKAFMLGLHAQLRSYYDMFYTLGELRGGTQRVGTSSLNTSLNYADIRSQNISEDIPGISNWNGLYSPIMQVNHFIQEVENGCTFLDDATRSRYLGQAYGMRALYYFMLYRTFGGVPLITKVDILDGKPSADKFYVERATPEATMEFIKADINKSENYFGNNTSFDAYDWSRYATLMLKAEIYMWAAKVSITGFTATGATDLQTAKTALSGIIGHFELMDNFASIFSCDNKKNTEIIFAMPFIEGEASNDGGRFLYQDAVFLGQAYGRNGKVIEKDTLNLKGTGGVFRDEYTEDFWKTFKEGDSRRDATFMEYYMKNDNGTLSEFGCVMKKRIGTINSNDNRIYISDIPVYRYADALLMMAEIENGLNNPCASYINEVRKRAYGDTFEENKYTEGSYAENELAILQERDKEFVSEGKRWFDVLRMHDASGRSLVFSANANYPGTNPILGTEEAYKMLWPVNIGTLNVNPLLTQTPGYGKK
# Experiments:
# Assay in all cases: glycan array binding signal (z-score within array); higher = stronger binding
# Conditions in all cases: glycan notation: IUPAC condensed, linker removed
# [1] = molecular target: Fuc(a1-2)Gal6S(b1-3)GlcNAc6S
# Method in brief: (§1)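 Negative Z-scores can be read as non-binding. The Z-score is calculated within each array and then averaged across arrays of one protein sequence at different concentrations or buffers and across linkers. Arrays, 3228 in all, were curated from the Consortium for Functional Glycomics database and kept only where the protein sequence was available.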
# Fuc(a1-2)Gal6S(b1-4)Glc = molecular target: Fuc(a1-2)Gal6S(b1-4)Glc
# Method in brief: as §1
# [2] = molecular target: Fuc(a1-2)Gal6S(b1-4)Glc6S
# Method in brief: as §1
# Fuc(a1-2)[Gal(a1-3)]Gal = molecular target: Fuc(a1-2)[Gal(a1-3)]Gal
# Method in brief: as §1
# [3] = molecular target: Fuc(a1-2)[Gal(a1-3)]Gal(b1-3)GalNAc
# Method in brief: as §1
# [4] = molecular target: Fuc(a1-2)[Gal(a1-3)]Gal(b1-3)GalNAc(b1-3)Gal(a1-4)Gal(b1-4)Glc
# Method in brief: as §1
# [5] = molecular target: Fuc(a1-2)[Gal(a1-3)]Gal(b1-3)GlcNAc
# Method in brief: as §1
# [6] = molecular target: Fuc(a1-2)[Gal(a1-3)]Gal(b1-3)GlcNAc(b1-2)Man(a1-3)[Fuc(a1-2)[Gal(a1-3)]Gal(b1-3)GlcNAc(b1-2)Man(a1-6)]Man(b1-4)GlcNAc(b1-4)GlcNAc
# Method in brief: as §1
# [7] = molecular target: Fuc(a1-2)[Gal(a1-3)]Gal(b1-3)GlcNAc(b1-2)Man(a1-3)[Fuc(a1-2)[Gal(a1-3)]Gal(b1-3)GlcNAc(b1-2)Man(a1-6)]Man(b1-4)GlcNAc(b1-4)[Fuc(a1-6)]GlcNAc
# Method in brief: as §1
# [8] = molecular target: Fuc(a1-2)[Gal(a1-3)]Gal(b1-3)GlcNAc(b1-3)GalNAc
# Method in brief: as §1
# [9] = molecular target: Fuc(a1-2)[Gal(a1-3)]Gal(b1-3)GlcNAc(b1-6)GalNAc
# Method in brief: as §1
# [10] = molecular target: Fuc(a1-2)[Gal(a1-3)]Gal(b1-4)Glc
# Method in brief: as §1
# [11] = molecular target: Fuc(a1-2)[Gal(a1-3)]Gal(b1-4)GlcNAc
# Method in brief: as §1
# [12] = molecular target: Fuc(a1-2)[Gal(a1-3)]Gal(b1-4)GlcNAc(b1-2)Man
# Method in brief: as §1
# [13] = molecular target: Fuc(a1-2)[Gal(a1-3)]Gal(b1-4)GlcNAc(b1-2)Man(a1-3)[Fuc(a1-2)[Gal(a1-3)]Gal(b1-4)GlcNAc(b1-2)Man(a1-6)]Man(b1-4)GlcNAc(b1-4)GlcNAc
# Method in brief: as §1
# [14] = molecular target: Fuc(a1-2)[Gal(a1-3)]Gal(b1-4)GlcNAc(b1-2)Man(a1-3)[Fuc(a1-2)[Gal(a1-3)]Gal(b1-4)GlcNAc(b1-2)Man(a1-6)]Man(b1-4)GlcNAc(b1-4)[Fuc(a1-6)]GlcNAc
# Method in brief: as §1
# [15] = molecular target: Fuc(a1-2)[Gal(a1-3)]Gal(b1-4)GlcNAc(b1-3)GalNAc
# Method in brief: as §1
# [16] = molecular target: Fuc(a1-2)[Gal(a1-3)]Gal(b1-4)GlcNAc(b1-3)[Fuc(a1-2)[Gal(a1-3)]Gal(b1-4)GlcNAc(b1-6)]GalNAc
# Method in brief: as §1
# [17] = molecular target: Fuc(a1-2)[Gal(a1-3)]Gal(b1-4)GlcNAc(b1-6)GalNAc
# Method in brief: as §1
# [18] = molecular target: Fuc(a1-2)[Gal(a1-3)]Gal(b1-4)[Fuc(a1-3)]Glc
# Method in brief: as §1
# [19] = molecular target: Fuc(a1-2)[Gal(a1-3)]Gal(b1-4)[Fuc(a1-3)]GlcNAc
# Method in brief: as §1
# [20] = molecular target: Fuc(a1-2)[Gal(a1-3)]Gal(b1-4)[Fuc(a1-3)]GlcNAc(b1-3)GalNAc
# Method in brief: as §1
# [21] = molecular target: Fuc(a1-2)[Gal(a1-4)]Gal(b1-4)GlcNAc
# Method in brief: as §1
# [22] = molecular target: Fuc(a1-2)[GalNAc(a1-3)]Gal
# Method in brief: as §1
# [23] = molecular target: Fuc(a1-2)[GalNAc(a1-3)]Gal(b1-3)GalNAc(a1-3)[Fuc(a1-2)]Gal(b1-4)GlcNAc
# Method in brief: as §1
# [24] = molecular target: Fuc(a1-2)[GalNAc(a1-3)]Gal(b1-3)GalNAc(b1-3)Gal(a1-4)Gal(b1-4)Glc
# Method in brief: as §1
# [25] = molecular target: Fuc(a1-2)[GalNAc(a1-3)]Gal(b1-3)GlcNAc
# Method in brief: as §1
# [26] = molecular target: Fuc(a1-2)[GalNAc(a1-3)]Gal(b1-3)GlcNAc(b1-2)Man(a1-3)[Fuc(a1-2)[GalNAc(a1-3)]Gal(b1-3)GlcNAc(b1-2)Man(a1-6)]Man(b1-4)GlcNAc(b1-4)GlcNAc
# Method in brief: as §1
# [27] = molecular target: Fuc(a1-2)[GalNAc(a1-3)]Gal(b1-3)GlcNAc(b1-2)Man(a1-3)[Fuc(a1-2)[GalNAc(a1-3)]Gal(b1-3)GlcNAc(b1-2)Man(a1-6)]Man(b1-4)GlcNAc(b1-4)[Fuc(a1-6)]GlcNAc
# Method in brief: as §1
# [28] = molecular target: Fuc(a1-2)[GalNAc(a1-3)]Gal(b1-3)GlcNAc(b1-3)GalNAc
# Method in brief: as §1
# [29] = molecular target: Fuc(a1-2)[GalNAc(a1-3)]Gal(b1-3)GlcNAc(b1-6)GalNAc
# Method in brief: as §1
# [30] = molecular target: Fuc(a1-2)[GalNAc(a1-3)]Gal(b1-4)Glc
# Method in brief: as §1
# [31] = molecular target: Fuc(a1-2)[GalNAc(a1-3)]Gal(b1-4)GlcNAc
# Method in brief: as §1
# [32] = molecular target: Fuc(a1-2)[GalNAc(a1-3)]Gal(b1-4)GlcNAc(b1-2)Man
# Method in brief: as §1
# [33] = molecular target: Fuc(a1-2)[GalNAc(a1-3)]Gal(b1-4)GlcNAc(b1-2)Man(a1-3)[Fuc(a1-2)[GalNAc(a1-3)]Gal(b1-4)GlcNAc(b1-2)Man(a1-6)]Man(b1-4)GlcNAc(b1-4)GlcNAc
# Method in brief: as §1
# [34] = molecular target: Fuc(a1-2)[GalNAc(a1-3)]Gal(b1-4)GlcNAc(b1-2)Man(a1-3)[Fuc(a1-2)[GalNAc(a1-3)]Gal(b1-4)GlcNAc(b1-2)Man(a1-6)]Man(b1-4)GlcNAc(b1-4)[Fuc(a1-6)]GlcNAc
# Method in brief: as §1
# [35] = molecular target: Fuc(a1-2)[GalNAc(a1-3)]Gal(b1-4)GlcNAc(b1-3)Gal(b1-4)GlcNAc
# Method in brief: as §1
# [36] = molecular target: Fuc(a1-2)[GalNAc(a1-3)]Gal(b1-4)GlcNAc(b1-3)Gal(b1-4)GlcNAc(b1-3)Gal(b1-4)GlcNAc
# Method in brief: as §1
# [37] = molecular target: Fuc(a1-2)[GalNAc(a1-3)]Gal(b1-4)GlcNAc(b1-3)GalNAc
# Method in brief: as §1
# [38] = molecular target: Fuc(a1-2)[GalNAc(a1-3)]Gal(b1-4)GlcNAc(b1-3)[Fuc(a1-2)[GalNAc(a1-3)]Gal(b1-4)GlcNAc(b1-6)]GalNAc
# Method in brief: as §1
# [39] = molecular target: Fuc(a1-2)[GalNAc(a1-3)]Gal(b1-4)GlcNAc(b1-6)GalNAc
# Method in brief: as §1
# [40] = molecular target: Fuc(a1-2)[GalNAc(a1-3)]Gal(b1-4)[Fuc(a1-3)]GlcNAc
# Method in brief: as §1
# [41] = molecular target: Fuc(a1-2)[GalNAc(a1-3)]Gal(b1-4)[Fuc(a1-3)]GlcNAc(b1-3)GalNAc
# Method in brief: as §1
# [42] = molecular target: Fuc(a1-2)[GalNAc(a1-4)]Gal(b1-4)GlcNAc
# Method in brief: as §1
# [43] = molecular target: Fuc(a1-2)[GalNAc(b1-3)]Gal
# Method in brief: as §1
binder,measurement,setting,value
B1,glycan array binding signal (z-score),[1],0.172
same,glycan array binding signal (z-score),Fuc(a1-2)Gal6S(b1-4)Glc,-0.274
same,glycan array binding signal (z-score),[2],0.257
same,glycan array binding signal (z-score),Fuc(a1-2)[Gal(a1-3)]Gal,0.12
same,glycan array binding signal (z-score),[3],-0.039
same,glycan array binding signal (z-score),[4],-0.525
same,glycan array binding signal (z-score),[5],0.093
same,glycan array binding signal (z-score),[6],1.77
same,glycan array binding signal (z-score),[7],-0.412
same,glycan array binding signal (z-score),[8],-0.479
same,glycan array binding signal (z-score),[9],-0.099
same,glycan array binding signal (z-score),[10],-0.1
same,glycan array binding signal (z-score),[11],0.053
same,glycan array binding signal (z-score),[12],-0.035
same,glycan array binding signal (z-score),[13],0.549
same,glycan array binding signal (z-score),[14],-0.293
same,glycan array binding signal (z-score),[15],-0.367
same,glycan array binding signal (z-score),[16],0.131
same,glycan array binding signal (z-score),[17],-0.61
same,glycan array binding signal (z-score),[18],-0.251
same,glycan array binding signal (z-score),[19],-0.308
same,glycan array binding signal (z-score),[20],-0.237
same,glycan array binding signal (z-score),[21],0.234
same,glycan array binding signal (z-score),[22],0.084
same,glycan array binding signal (z-score),[23],-0.378
same,glycan array binding signal (z-score),[24],-0.572
same,glycan array binding signal (z-score),[25],-0.014
same,glycan array binding signal (z-score),[26],-0.384
same,glycan array binding signal (z-score),[27],-0.437
same,glycan array binding signal (z-score),[28],0.96
same,glycan array binding signal (z-score),[29],-0.228
same,glycan array binding signal (z-score),[30],-0.677
same,glycan array binding signal (z-score),[31],-0.341
same,glycan array binding signal (z-score),[32],-0.33
same,glycan array binding signal (z-score),[33],0.319
same,glycan array binding signal (z-score),[34],0.053
same,glycan array binding signal (z-score),[35],-0.273
same,glycan array binding signal (z-score),[36],2.07
same,glycan array binding signal (z-score),[37],-0.185
same,glycan array binding signal (z-score),[38],-0.334
same,glycan array binding signal (z-score),[39],0.027
same,glycan array binding signal (z-score),[40],-0.498
same,glycan array binding signal (z-score),[41],0.824
same,glycan array binding signal (z-score),[42],-0.319
same,glycan array binding signal (z-score),[43],-0.399
